Source: the RNAGym collection of RNA variant scans (doi:10.1093/nar/gkz1192)
Read counts are not given, so values of variants with three or more changes are uncertain.

B1: CPEB3 Ribozyme (parent)
chain: UAACAGGGGGCCACAGCAGAAGCGUUCACGUCGCAGCCCCUGUCAGAUUCUGGUGAAUCUGCGAAUUCUGCUGUAUAUCUC

Variants of: B1
Experiment: self-cleavage, relative activity (ratio to wild type); higher = more cleavage; in vitro, sequencing
Outline: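 After error-prone PCR and barcoding, CPEB3 ribozyme mutant libraries were transcribed with T7 RNA polymerase at 37°C for 5 hours, then given 15 min with DNase I before an EDTA stop, and they cleaved during both steps. Reverse transcription with template switching preceded Illumina sequencing. Relative activity divides a variant's cleaved/total read fraction by the unmutated ribozyme's. At least 5 reads were required per variant, and three batches were averaged.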
In the case of UAACAGUGGGCCACAGCAGAAGCGUUCACGUCGCAGCCCCUGUCAGAUUCUGGUGGAUCUGCGAGUUCUGCCGUAUAGCAC [G7U A56G A65G U72C U78G U80A], the self-cleavage is reported as 0.06. UAACAGGAGGCCACGGCAGAAGCGUUCGCGUCGCAGCCCCUGUCAGAUUCUGGUGAAUCGGCGAAUUCUGCUGUAUAUCUC [G8A A15G A28G U60G] showed a self-cleavage of 0.26. Variant UAACAGGAGGCCUCAGCAGUAGCGUUCACGUCGCAGCCCCUGUCAGAUUAUGUUGAAUCUGCGAAUUCUGCUGUGUAUCUC [G8A A13U A20U C50A G53U A75G] has a self-cleavage of 0.04. UAACAGGAGGCCUCAGCAGAGGCGUUCACGUCGCAGCCCCUGCCAGAUUCUGGUGAAUCGGCGAAUUCAGCUGUAUGUCUC [G8A A13U A21G U43C U60G U69A A77G] showed a self-cleavage of 0.03. UAACAGGAGGCCACGGCUGAAGCGUUCACGUCUCAGCCCCUGUCAGAUUCUGGUGAAUCUGCGAAUUCUGCUGUAUAUCUC [G8A A15G A18U G33U] showed a self-cleavage of 0.13. In the case of UAACAGUGGGCCACAGCAGAAGCGUUCACGUCGCAGCCCCUGUCAGAUUCUGGUGAAUCUGCGGAUUCUGCUGUGUACCUC [G7U A64G A75G U78C], the self-cleavage is reported as 0.11. UAACAGUGGGCCACAGCAGAGGCGUUCACGUCGCAGCCCCUGUCAGAUUCCGGCGAAUCUGCGAAUUCUGCUGUAUAUCUC [G7U A21G U51C U54C] gave a self-cleavage of 0.04. In the case of UAACAGUGGGCCACAGCAGAAGCGUUCACGUCGCAGCCCCUGUCAGAUUCUGGUGAAUCUGCGAAUUCCGCCGUAUAGCGC [G7U U69C U72C U78G U80G], the self-cleavage is reported as 0.12. In the case of UAACAGGAGGCCGCAGCAGAAGCGUUCGCGUCGCAGCCCCUGUCAGAUUCUGGUGAAUCUGCGAAUUCUGCUGUAUAUCUC [G8A A13G A28G], the self-cleavage is reported as 0.39. Variant UAACAGUGGGCCACAGCAGAAGCGAUCACGUCCCAGCCCCUGUCAGAUCCUGGUGAAUCUGCGAACUCUGCUGUAUAUCUC [G7U U25A G33C U49C U66C] has a self-cleavage of 0.04. In the case of UAACAGUGGGCCACAGCAGAAGCGUUCACGUCGCAGCCCCUGUCGGGUUCUGGUGAAUCAGCGAAUUCUGCUGUAUAUCUC [G7U A45G A47G U60A], the self-cleavage is reported as 0.06. For UAACAGGAGGCCACUGCAGAAGCGUUCACCACGCGGCCCCAGUCAGAUACUGGUGAAUCUGCGAAUUCUGCUGUAUAUCUC [G8A A15U G30C U31A A35G U41A U49A], the self-cleavage was 0.04. UAACAGGAGGCCUCAGCAGAAGCGUUCACGUCGCAGCCCCUGUCAGAUUCUGGAGAAUCCGCGAGUUCUGCUGUAUAUCUC [G8A A13U U54A U60C A65G] gave a self-cleavage of 0.07. For UAACAGGAGGCCGCAGCAGAAGCGUUCACGUCGCAGCCCCUGUCAGAUUCCGGUGAAUCUGCGAAUCCUGAUGUAUAUCUC [G8A A13G U51C U67C C71A], the self-cleavage was 0.08. With UAACAGGAGGCCCCAGCAGAAGCGUCCACGUCGCAGCCCCAGUCAGAUUCUGGUGAAUCUGCGAAAUCUGCUGUAUAUCUC [G8A A13C U26C U41A U66A] the self-cleavage was 0.06. UAACAGUGGGCCACAGCAGAAGCGUUCACGUCGCAGCCCCUGUCAGACUCUGGUGAAUCUGCGCACUCUGCUGUAUAUCUC [G7U U48C A64C U66C] gave a self-cleavage of 0.12. UAACAGUGGGCCACAGCAGAACCGUUCACGUCGCAGCCCCAGUCAGAUUCUGGUGAAUCUGCGAAUUCUGCUCUAUAUCUC [G7U G22C U41A G73C] showed a self-cleavage of 0.23. With UAACAGUGGGCCACAGCAGAAGCGCUCACGUCGCAGCCCCUGUCAGAUUCCGGUAAAUCUGCGCAUUCUGCUGUAUAUCUC [G7U U25C U51C G55A A64C] the self-cleavage was 0.05. In the case of UAACAGUGGGCCACAGCAGAGGCGUUCACGUCGCGGCCCCUGUCAGAUUCUGGUGAAUCUGCGAAUCCUGCUGUAAAUCCC [G7U A21G A35G U67C U76A U80C], the self-cleavage is reported as 0.07. Variant UAACAGUGGGCCACAGCAGAAGCGUUCACGUCGCAGCCCCUGCCAGAUUCUGGUGAAUCUGCGAACUCUGCCGUAUGUCUC [G7U U43C U66C U72C A77G] has a self-cleavage of 0.06. With UAACAGGAGGCCACGGCAGAAGCGUUCGCGUCACAGCCCCUGUCAGAUUCUGGUGGAUCUGCGAAUUCUGCUGUAUAUCUC [G8A A15G A28G G33A A56G] the self-cleavage was 0.02. In the case of UAACAGUGGGCCAUCGCAGAAGCGUUCACGUCGCAGCCCCUGUAAGAUUCUGGUGAAUCUGCGAAUUCUGCUGUAUAUCUC [G7U C14U A15C C44A], the self-cleavage is reported as 0.08. In the case of UAACAGGAGGCCUCAGCAGAAGCGUUCACGUCGCAGCCCCUGUCAGAUUCCGAUGAAUCUGCGAAUUCUGCUAUAUAUCUC [G8A A13U U51C G53A G73A], the self-cleavage is reported as 0.11. Work on UAACAGUGGGCCACAGCAUGAGCGUUCACGUCGCAGCCUCUGUCAGAUUCUGGUGAAUCUGCGAAUUCUGCUGUAUAUCUC [G7U G19U A20G C39U] yielded a self-cleavage of 0.14. UAACAGUGGGCCACAGCAGAGGCGUCCACGUCGCAGCCCCUGUCAGAUUCUGGUGAAUCUGCGAAUUCUGCUGUAAAUCUC [G7U A21G U26C U76A] showed a self-cleavage of 0.05. UAACAGUGGGCUACAGCAGAAGCGUUCACGUCGCAGCCCCUGUCAGAUUCUGGUGAACCUGCGAAUACUGCUGUAUAUCUC [G7U C12U U58C U67A] gave a self-cleavage of 0.06. UAACAGUGGGCCACAGCAGAAGCGUUCACGUCGCGGCACCUGUCAGAUUCUGGUGAAUCUGCGAACUCUGCCGUAUAUCUC [G7U A35G C38A U66C U72C] gave a self-cleavage of 0.06. In the case of UAACAGUGGGCCACAGCAGAAGCGUCCACGUUGCAGCCCCUGUCAGAUUCUGGUGAAUCUGCGAAUUCUGCUGUAUAUCUC [G7U U26C C32U], the self-cleavage is reported as 0.1. UAACAGUGGGCCACAGCAGAAGCGUUCACGUCGCAGCCCCUGUCAGAUUCUGGUGAAUCUGCGAAUUCAGCUGUAGAUCUC [G7U U69A U76G] gave a self-cleavage of 0.24. Variant UAACAGUGGGCCACAGCAGAAGCGUUCACGUCGCAGCCCCUGUCGGAUUCUGGUGAAUCUGCGUAUUCUGCUGUAUAUCUC [G7U A45G A64U] has a self-cleavage of 0.15. UAACAGUGGGCCACAGCAGAAGCGUUCACGUCGCAGCCCCUGUCAGAUUCUGGUGUGUCUGCGAAUUCUGCUGUAUAUCUC [G7U A56U A57G] gave a self-cleavage of 0.14. UAACAGUGGGCCACAGCAGAAGCGUUCACGUCGCAGCCCCUGUCAGACCCAGGUGAAUCAGCGAAUUCUGCUGUAUACCUC [G7U U48C U49C U51A U60A U78C] gave a self-cleavage of 0.08. Work on UAACAGGAGGCCUCAGCAGAAGCGUUCUCGUCGCAGCCCCUGUCAGAUUCUGGUGAAUCUGCGAAUUCUGCUGUAUAUCUC [G8A A13U A28U] yielded a self-cleavage of 0.3. In the case of UAACAGUGGGCCACAGCAGAAGGGCUCACGUCGCAGCCCCUGUCAGAUUCUGGUGAACCUGCGAAUCCUGCCGUAUAUCUC [G7U C23G U25C U58C U67C U72C], the self-cleavage is reported as 0.06.
